# The other results are listed elsewhere or left out.
# Columns and labels:
# Experiment in all cases: glycan array binding signal (z-score within array); higher = stronger binding
# Conditions in all cases: glycan notation: IUPAC condensed, linker removed
# [1] = target: GlcNAc(b1-3)[GlcNAc(b1-6)]GalNAc
# In short: (§1)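 The Consortium for Functional Glycomics database supplied 3228 glycan arrays, of which those lacking an available protein sequence were dropped. The binding signal, a within-array Z-score, was averaged across arrays of the same protein sequence and across linkers. Negative scores can be read as non-binding.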
# [2] = target: GlcNAc(b1-4)Gal(b1-4)GlcNAc
# In short: as §1
# GlcNAc(b1-4)GlcNAc = target: GlcNAc(b1-4)GlcNAc
# In short: as §1
# [3] = target: GlcNAc(b1-4)GlcNAc(b1-4)GlcNAc
# In short: as §1
# [4] = target: GlcNAc(b1-4)GlcNAc(b1-4)GlcNAc(b1-4)GlcNAc(b1-4)GlcNAc
# In short: as §1
# [5] = target: GlcNAc(b1-4)GlcNAc(b1-4)GlcNAc(b1-4)GlcNAc(b1-4)GlcNAc(b1-4)GlcNAc
# In short: as §1
# [6] = target: GlcNAc(b1-4)[GlcNAc(b1-6)]GalNAc
# In short: as §1
# [7] = target: GlcNAc(b1-6)Gal(b1-4)GlcNAc
# In short: as §1
# GlcNAc(b1-6)GalNAc = target: GlcNAc(b1-6)GalNAc
# In short: as §1
# GlcNAc3Prop(b1-4)GlcNAc = target: GlcNAc3Prop(b1-4)GlcNAc
# In short: as §1
# [8] = target: GlcNAc6S(b1-3)Gal(b1-4)GlcNAc
# In short: as §1
# Kdn(a2-3)Gal(b1-3)GalNAc = target: Kdn(a2-3)Gal(b1-3)GalNAc
# In short: as §1
# Kdn(a2-3)Gal(b1-3)GlcNAc = target: Kdn(a2-3)Gal(b1-3)GlcNAc
# In short: as §1
# Kdn(a2-3)Gal(b1-4)Glc = target: Kdn(a2-3)Gal(b1-4)Glc
# In short: as §1
# Kdn(a2-3)Gal(b1-4)GlcNAc = target: Kdn(a2-3)Gal(b1-4)GlcNAc
# In short: as §1
# [9] = target: Kdn(a2-3)Gal(b1-4)[Fuc(a1-3)]GlcNAc
# In short: as §1
# Kdn(a2-6)Gal(b1-4)GlcNAc = target: Kdn(a2-6)Gal(b1-4)GlcNAc
# In short: as §1
# [10] = target: Man(a1-2)Man(a1-2)Man(a1-3)Man
# In short: as §1
# [11] = target: Man(a1-2)Man(a1-2)Man(a1-6)[Man(a1-3)]Man
# In short: as §1
# Man(a1-2)Man(a1-3)Man = target: Man(a1-2)Man(a1-3)Man
# In short: as §1
# [12] = target: Man(a1-2)Man(a1-3)[Man(a1-2)Man(a1-6)]Man
# In short: as §1
# [13] = target: Man(a1-2)Man(a1-3)[Man(a1-2)Man(a1-6)]Man(a1-6)[Man(a1-2)Man(a1-2)Man(a1-3)]Man
# In short: as §1
# [14] = target: Man(a1-2)Man(a1-3)[Man(a1-2)Man(a1-6)]Man(a1-6)[Man(a1-2)Man(a1-2)Man(a1-3)]Man(b1-4)GlcNAc(b1-4)GlcNAc
# In short: as §1
# [15] = target: Man(a1-2)Man(a1-3)[Man(a1-6)]Man(a1-6)[Man(a1-2)Man(a1-3)]Man(b1-4)GlcNAc(b1-4)GlcNAc
# In short: as §1
# [16] = target: Man(a1-2)Man(a1-6)[Man(a1-3)]Man(a1-6)[Man(a1-2)Man(a1-2)Man(a1-3)]Man
# In short: as §1
# [17] = target: Man(a1-2)Man(a1-6)[Man(a1-3)]Man(a1-6)[Man(a1-2)Man(a1-2)Man(a1-3)]Man(b1-4)GlcNAc(b1-4)GlcNAc
# In short: as §1
# Man(a1-3)[Man(a1-6)]Man = target: Man(a1-3)[Man(a1-6)]Man
# In short: as §1
# [18] = target: Man(a1-3)[Man(a1-6)]Man(a1-6)[Man(a1-2)Man(a1-3)]Man(b1-4)GlcNAc(b1-4)GlcNAc
# In short: as §1
# [19] = target: Man(a1-3)[Man(a1-6)]Man(a1-6)[Man(a1-3)]Man
# In short: as §1
# [20] = target: Man(a1-3)[Man(a1-6)]Man(a1-6)[Man(a1-3)]Man(b1-4)GlcNAc(b1-4)GlcNAc
# In short: as §1
# [21] = target: Man(a1-3)[Man(a1-6)]Man(b1-4)GlcNAc(b1-4)GlcNAc
# In short: as §1
# Man(a1-6)Man = target: Man(a1-6)Man
# In short: as §1
# Man(b1-4)GlcNAc = target: Man(b1-4)GlcNAc
# In short: as §1
# Neu5Ac(a2-3)Gal = target: Neu5Ac(a2-3)Gal
# In short: as §1
# [22] = target: Neu5Ac(a2-3)Gal(b1-3)GalNAc
# In short: as §1
# [23] = target: Neu5Ac(a2-3)Gal(b1-3)GalNAc(b1-3)Gal(a1-4)Gal(b1-4)Glc
# In short: as §1
# [24] = target: Neu5Ac(a2-3)Gal(b1-3)GalNAc(b1-4)[Neu5Ac(a2-3)]Gal(b1-4)Glc
# In short: as §1
# [25] = target: Neu5Ac(a2-3)Gal(b1-3)GalNAc(b1-4)[Neu5Ac(a2-8)Neu5Ac(a2-3)]Gal(b1-4)Glc
# In short: as §1
binder,measurement,setting,value
Gal 9 (Canis lupus) (protein) MAFSSSQPPYLSPGVPFSGKIQGGLQDGLKITINGTILYCNGTRFAVNFHSGHSDSDIAFHFNPRFEEGGYVVCNTKQKGSWGSEERKMQMPFQMGNPFELCFMVNSCDFKVTVNGSHFTQYSHRVPFHYVDTLSITGAVQLSYISFQSPGVWQSSSAPITQTVIHTVQTTPGQPFPNPIIPPTAYPTPTYPMPFFTSIPGGLYPSKSIIVSGTVLPGAKRFHINLRSGNDIAFHLNPRFNENTVVRNMQINNSWGSEERSLPRKMPFVQGQSFSVWIMCEGHCFKVAVDGEHLFEYYHRLKNLLAINNMEVAGDVQLTHVQT,glycan array binding signal (z-score),[1],-0.327
same,glycan array binding signal (z-score),[2],-0.336
same,glycan array binding signal (z-score),GlcNAc(b1-4)GlcNAc,-0.324
same,glycan array binding signal (z-score),[3],-0.362
same,glycan array binding signal (z-score),[4],-0.332
same,glycan array binding signal (z-score),[5],-0.339
same,glycan array binding signal (z-score),[6],-0.319
same,glycan array binding signal (z-score),[7],-0.343
same,glycan array binding signal (z-score),GlcNAc(b1-6)GalNAc,-0.35
same,glycan array binding signal (z-score),GlcNAc3Prop(b1-4)GlcNAc,-0.333
same,glycan array binding signal (z-score),[8],-0.104
same,glycan array binding signal (z-score),Kdn(a2-3)Gal(b1-3)GalNAc,0.013
same,glycan array binding signal (z-score),Kdn(a2-3)Gal(b1-3)GlcNAc,0.082
same,glycan array binding signal (z-score),Kdn(a2-3)Gal(b1-4)Glc,-0.194
same,glycan array binding signal (z-score),Kdn(a2-3)Gal(b1-4)GlcNAc,0.189
same,glycan array binding signal (z-score),[9],-0.322
same,glycan array binding signal (z-score),Kdn(a2-6)Gal(b1-4)GlcNAc,-0.335
same,glycan array binding signal (z-score),[10],-0.336
same,glycan array binding signal (z-score),[11],-0.342
same,glycan array binding signal (z-score),Man(a1-2)Man(a1-3)Man,-0.338
same,glycan array binding signal (z-score),[12],-0.359
same,glycan array binding signal (z-score),[13],-0.261
same,glycan array binding signal (z-score),[14],-0.361
same,glycan array binding signal (z-score),[15],-0.326
same,glycan array binding signal (z-score),[16],-0.328
same,glycan array binding signal (z-score),[17],-0.303
same,glycan array binding signal (z-score),Man(a1-3)[Man(a1-6)]Man,-0.345
same,glycan array binding signal (z-score),[18],-0.338
same,glycan array binding signal (z-score),[19],-0.346
same,glycan array binding signal (z-score),[20],-0.322
same,glycan array binding signal (z-score),[21],-0.344
same,glycan array binding signal (z-score),Man(a1-6)Man,-0.35
same,glycan array binding signal (z-score),Man(b1-4)GlcNAc,-0.344
same,glycan array binding signal (z-score),Neu5Ac(a2-3)Gal,-0.335
same,glycan array binding signal (z-score),[22],0.374
same,glycan array binding signal (z-score),[23],0.612
same,glycan array binding signal (z-score),[24],1.3
same,glycan array binding signal (z-score),[25],-0.276

# Reference: the supplement of paper PMC8728848
